Test results taken from PubChem BioAssay AID463173 (ICCB-Longwood Screening Facility, Harvard Medical School, 2010).
The whole screen tested about 52,000 compounds, of which about 4,300 (8.3%) were called active. Cut-off read from the data, not from the text of the source: active = survival mostly below about 52% (no sharp cut-off); inactive = mostly above about 56%. The list shows a part of the results.

These compounds were tested on DeltatarO mutant (assay: S. aureus survival, RN4220 and DeltatarO strains – OD600, teichoic acid synthesis inhibitors, primary screen (AID 463173)). Conditions: S. aureus RN4220 wild type/DeltatarO growth, OD600, 18 h, stronger effect = lower value, screened at 18.75 µg/mL (by protocol).

Row | Structure (SMILES) | survival
1 | COc1cc(Cl)c(C)cc1NC(=O)CSc1cc(=O)n(C)c2cc(Cl)ccc12 | inactive: 63%
2 | Cc1ccc2c(=O)cc(C(=O)Nc3sc4c(c3C(=O)NCc3ccco3)CCCC4)oc2c1C | inactive: 80%
3 | CCc1ccc(CNC(=O)c2nn(-c3ccc(C)c(C)c3)nc2CO)cc1 | inactive: 112%
4 | CCC(C)NC(=O)Cn1ncc2c(C)n(Cc3ccc(F)cc3)c(C)c2c1=O (stereo not given) | inactive: 66%
5 | COC(=O)c1ccc(Cn2c(=O)cc(C)c3c(C)nn(C)c32)cc1 | inactive: 66%
6 | CC(=O)CSc1nc(-c2ccccc2)[nH]c1S(=O)(=O)c1ccc(C)cc1 | inactive: 74%
7 | CCOc1ccc(Sc2cc(C(=O)NCc3ccc(F)cc3)c3ccccc3n2)cc1 | inactive: 124%
8 | CCn1cc(C(=O)N2CCN(c3ccccc3)CC2)c(=O)c2cc(S(=O)(=O)N(C)C3CCCCC3)ccc21 | inactive: 79%
9 | CC(C)(C)C(=O)N1c2ccccc2CCc2ccccc21 | inactive: 84%
10 | COc1ccc(NS(=O)(=O)c2ccc3c(c2)CCN3C(=O)C2CC2)cc1OC | inactive: 86%
11 | Cc1cc(C)c2c(=O)cc(C(=O)NCCc3ccc(S(N)(=O)=O)cc3)oc2c1 | inactive: 61%
12 | CC(C)OC(=O)CSc1n[nH]c(-c2cccnc2)n1 | inactive: 108%
13 | O=C(Cc1cccs1)N1CCC(Cc2ccccc2)CC1 | inactive: 97%
14 | Cc1ccccc1CNC(=O)C(=O)NCC(c1ccco1)S(=O)(=O)c1ccc(F)cc1 (stereo not given) | inactive: 81%
15 | O=C(O)/C(=C/C(=O)c1ccccc1)Nc1ccccc1 | inactive: 101%
16 | Cc1c(Cl)cccc1NC(=O)N1CCN(Cc2cc(=O)n3nc(-c4ccccc4F)sc3n2)CC1 | inactive: 101%
17 | Cc1nn(C)c2c1c(-c1ccccc1)cc(=O)n2Cc1ccccc1F | inactive: 109%
18 | CCCS(=O)(=O)N1CCC(N2CCN(Cc3ccc(C)cc3)C(=O)C2=O)CC1 | inactive: 74%
19 | Cc1ccc(-c2noc(CCC(=O)Nc3ccc(F)cc3Cl)n2)cc1 | inactive: 80%
20 | COc1ccc(NC(=O)c2cccc(N3CCCS3(=O)=O)c2)cc1 | inactive: 88%
21 | Cc1cc(F)ccc1NC(=O)C1CCCN(c2nnc(-n3c(C)ccc3C)s2)C1 (stereo not given) | inactive: 79%
22 | Cc1cc(C)cc(N2C(=O)CS(=O)(=O)C23C(=O)N(Cc2ccc(F)cc2)c2ccc(C)cc23)c1 (stereo not given) | inactive: 67%
23 | Cn1ncc(C(=O)N2CCN(c3ccccc3)CC2)c1C1CCN(C(=O)OC(C)(C)C)CC1 | inactive: 78%

Row | Structure (SMILES) | survival
24 | CCOc1ccc(-c2cc3nc(C4CCN(C(=O)OC(C)(C)C)CC4)c(C(=O)Nc4ccc(C(=O)OC)cc4)cn3n2)cc1 | inactive: 109%
25 | Cc1ccc(CCNC(=O)NCc2noc3ccc(C)cc23)cc1 | inactive: 76%
26 | Cc1cccc(NC(=O)C(c2ccccc2)N2Cc3ccccc3C2=O)c1C (stereo not given) | inactive: 95%
27 | COC(=O)c1ccc(COC(=O)c2ccccn2)cc1 | inactive: 97%
28 | CNC(=O)CN(C1CCCCC1)S(=O)(=O)c1ccc(C)cc1 | inactive: 75%
29 | COC(=O)c1sccc1S(=O)(=O)N(CC(=O)Nc1ccc(C)cc1)c1ccccc1 | inactive: 97%
30 | COc1cccc2cc(-c3nnc(Nc4ccccc4C)s3)c(=O)oc12 | inactive: 71%
31 | CCN1C(=O)/C(=C/C=C2\Oc3ccccc3N2CC)SC1=S | inactive: 77%
32 | N#CC1=C(N)SC(N)=C(C#N)C1c1cc2c(cc1Cl)OCO2 | inactive: 117%
33 | C=CCN1CCN(C(c2ccc(C)cc2)c2nnnn2C2CCCC2)CC1 (stereo not given) | inactive: 103%
34 | Cc1cccc(CNC(=O)c2ccc(-c3nc(CS(=O)(=O)c4ccccc4)c(C)o3)cc2)c1 | inactive: 94%
35 | CN(C)c1ccc(-c2nc(-c3ccccn3)no2)cc1[N+](=O)[O-] | active: 42%
36 | Cc1cc(C)n2nc(CNC(=O)c3cccc(Cl)c3)nc2n1 | inactive: 80%
37 | CSc1ccc(CCNC(=O)C(C)n2nc(C)c3c(C)n(-c4ccccc4)nc3c2=O)cc1 (stereo not given) | active: 46%
38 | COc1cc(S(=O)(=O)N2CC(C)OC(C)C2)c(OC)cc1Cl (stereo not given) | inactive: 109%
39 | COc1ccc(NC(=O)CSc2nnc(CNc3ccc(C)cc3C)o2)c(OC)c1 | inactive: 80%
40 | COc1ccccc1OC(C)C(=O)Nc1ccc(-c2nc3ccccc3s2)cc1 (stereo not given) | inactive: 64%
41 | CC1(C)CC(CC(=O)O)(Cc2ccccc2)CCO1 (stereo not given) | inactive: 95%
42 | CCc1ccc(NC(=O)CCn2nc(-c3ccccc3OC)c3c(C)cc(C)nc32)cc1 | inactive: 53%
43 | Cc1ccc(-c2nnc(Nc3cccc(O)c3)c3ccccc23)cc1S(=O)(=O)N1CCOCC1 | inactive: 78%
44 | COc1ccc(-c2noc(CC(=O)Nc3ccc(F)cc3F)n2)cc1 | inactive: 63%
45 | CN(Cc1ccccc1)C(=O)Nc1ccc2c(c1)N(C)C(=O)c1ccccc1S2 | inactive: 94%
